This is one part of the list. At the low end of the ranking, values are background and their order means little.

For the assay, the target named is SIX1-Q177R homeodomain (UniProt Q15475). Description: universal protein binding microarray. To be noted: Universal all-10-mer PBM (8x60K, AMADID 030236), 300 nM GST-tagged protein, Alexa Fluor 488 anti-GST; buffer, salt, pH and temperature not stated; high values mean tight binding; most listed sequences are background and not binding sites; double strand, one strand shown.
Turning to GTGCTCCA, the binding signal stood at 0.183 E-score.

In the case of ATAACCCG, the binding signal was 0.18 E-score. Then CTCCTTCC, with 0.0538 E-score.

For the sequence GCAGAGCC, the binding signal was -0.392 E-score.

Turning to TGTTGAAA, the binding signal was 0.219 E-score.

For the sequence ACTAGCTC, the binding signal is -0.16 E-score. Then CTAGCTCC, with 0.0368 E-score; and AACACTAC, with 0.381 E-score; and ACTAAGCT, with -0.0795 E-score. Then GAACCGGC, with -0.0855 E-score; and CTCCGTAC, with 0.037 E-score.

For the sequence CACGATTA, the binding signal stood at 0.105 E-score. For CTTCCAGA, the binding signal is -0.122 E-score. Then TGATCTAA, with -0.0979 E-score. Then GCATCAAA, with -0.084 E-score. As for AAACACGT, the binding signal is 0.307 E-score. Then ATACTAAC, with 0.0329 E-score; and AAATTGCT, with -0.0646 E-score; and GAAGAGGC, with -0.103 E-score. Regarding CTGAGGAC, the binding signal was -0.119 E-score. Then TGAACACA, with 0.173 E-score. Then AGGAGTCC, with 0.094 E-score; and GCCAGACC, with -0.244 E-score; and AGACGGTA, with -0.04 E-score. Then AACGAGAA, with -0.0893 E-score; and AACCCACG, with 0.068 E-score.

Regarding GCGCATAA, the binding signal is -0.149 E-score. Then AACACATT, with 0.0624 E-score; and AGGATATC, with 0.0311 E-score; and CCATCTCC, with -0.0251 E-score.

On to CAATTGAA, for which the binding signal was -0.165 E-score.

Consider AGAGGTAT, for which the binding signal is 0.221 E-score. Then CAGGGCAG, with -0.196 E-score; and ATGTAGAC, with 0.00475 E-score. Then ATACAACA, with 0.0398 E-score; and GCTGGCCA, with -0.145 E-score. With GAACACCA, the binding signal was 0.468 E-score. On to CGCCTCCA, for which the binding signal turned out to be 0.019 E-score. Then CATCCAGG, with -0.187 E-score; and GCCCCCCC, with -0.0199 E-score; and ACGAACCT, with -0.0708 E-score. Regarding CGCTCCAA, the binding signal was -0.0383 E-score. Then ACCGCAGC, with 0.0693 E-score.

On to AGTTGTAG, for which the binding signal was -0.228 E-score. For the sequence ACCCAGAT, the binding signal worked out at 0.139 E-score. Then ATCCGAAA, with -0.0381 E-score. Then AACTGGAA, with -0.0887 E-score. Then AAGCTGGA, with -0.0562 E-score.

As to AAGAGGTC, the binding signal was -0.172 E-score. Then ACTGAGCG, with 0.0957 E-score; and CTCGTAAC, with -0.0126 E-score. On to CATGGTGA, for which the binding signal came to 0.0347 E-score. Then GATATTAC, with -0.0348 E-score; and ACACTGTG, with 0.381 E-score. In the case of ACCACCGT, the binding signal came to 0.0559 E-score. Then AAGCTCAG, with -0.247 E-score; and AAGACTCC, with -0.0556 E-score. For AGTTGGGG, the binding signal worked out at 0.16 E-score. As to TACTCGGA, the binding signal came to 0.139 E-score. Then AGGTATTA, with -0.0192 E-score; and ACTCGCGA, with 0.104 E-score. For AAATTTTA, the binding signal is -0.179 E-score. Then AATTCGCC, with -0.187 E-score. Then ATCCGACA, with 0.238 E-score.

Regarding AGCAAGAT, the binding signal was -0.0823 E-score. Then AAGCAGCG, with 0.043 E-score; and TCAGGGCA, with -0.13 E-score.

Consider AATGCGAG, for which the binding signal was -0.212 E-score.

For TACCCCAA, the binding signal came to 0.209 E-score.

With ATCATGGG, the binding signal is -0.0509 E-score.

For the sequence CGTGAGTC, the binding signal is -0.08 E-score.

AAAGAGAT: the binding signal is -0.239 E-score.

For the sequence CGCGCGAC, the binding signal turned out to be 0.0131 E-score.

Turning to CTCATATA, the binding signal was -0.0223 E-score.

Regarding GTAAGCTA, the binding signal was determined as 0.0288 E-score. Then GACCCGGC, with 0.0551 E-score; and TCTCGGAA, with -0.105 E-score; and AATGGAAT, with -0.149 E-score.

With GAACCACC, the binding signal was -0.0517 E-score. Then ACCCGCAG, with 0.103 E-score. Turning to AGCATCAC, the binding signal is -0.145 E-score. As to AACCCCCT, the binding signal stood at 0.276 E-score. On to ATCCAGCC, for which the binding signal is -0.0219 E-score. Then ATCTCGTG, with 0.0859 E-score.

Consider ATCCTAGG, for which the binding signal worked out at 0.0725 E-score. Then AGAGTATC, with 0.238 E-score; and CTTGATGA, with -0.091 E-score; and CCCCGGAG, with 0.261 E-score.

With AAGCCGAA, the binding signal worked out at 0.0488 E-score. Then CGACTGTC, with -0.0732 E-score. Then AGCGGAAA, with -0.308 E-score.

In the case of AATGCGGC, the binding signal was -0.028 E-score. Then GATCAGGC, with -0.0652 E-score. Then AAATTGAT, with -0.065 E-score; and TCCGCGGA, with 0.0601 E-score. Then ATGGCCGC, with -0.286 E-score. With GAAGGCCC, the binding signal was -0.338 E-score. Then AAACCCAA, with -0.0767 E-score; and AGCGATAG, with -0.203 E-score. In the case of CTTCGCAA, the binding signal was -0.149 E-score. Then GTCTCCAA, with 0.0116 E-score; and CCCCGAAC, with 0.181 E-score.

On to AGTGCCAA, for which the binding signal was -0.0609 E-score. TCCATACA: the binding signal is 0.0163 E-score. Then ACGAAAGC, with -0.0155 E-score; and GGTAATTA, with -0.0806 E-score. Then CGTTCGCA, with -0.0885 E-score; and AGCCGTAG, with 0.0304 E-score; and TCTTCAAA, with -0.0188 E-score. Turning to CCCCCTAC, the binding signal was 0.267 E-score. Then CGTAACGA, with -0.205 E-score; and CTCCAGCC, with -0.232 E-score. Then AGTGTGGA, with 0.162 E-score. Then GCTGTGCC, with -0.161 E-score.

In the case of ACTAGAGT, the binding signal was determined as 0.0587 E-score. Then ACACTACG, with 0.388 E-score; and ACCCCTAA, with 0.183 E-score. Then AGCCCTAA, with -0.149 E-score; and GCGATGCC, with -0.214 E-score; and ATTGGCAA, with -0.178 E-score. Then GAAGGTAC, with 0.0551 E-score; and CCTTCACA, with 0.0313 E-score; and AGAATAGA, with -0.094 E-score. Turning to GGAACTAC, the binding signal was -0.0839 E-score. With ACTCAAGA, the binding signal turned out to be 0.0727 E-score. Then ATAACAGA, with -0.123 E-score; and ACGTTATA, with 0.0443 E-score; and AGTTAGGG, with 0.0149 E-score.

For CCAGGCAA, the binding signal was -0.115 E-score. On to CTTAGCAC, for which the binding signal was determined as 0.0361 E-score.

For the sequence CGGTGGGA, the binding signal is -0.0776 E-score. Then AAGTGATC, with 0.184 E-score; and GCTTGGCA, with -0.0224 E-score; and ATTACGCA, with -0.18 E-score. Then CTATTGGC, with 0.00632 E-score. Then AGTTCGCG, with -0.154 E-score; and CCTTATAC, with 0.000135 E-score; and AACTTCGG, with -0.137 E-score. With CACTGTCA, the binding signal was 0.13 E-score. CCTATCTA: the binding signal was 0.0167 E-score.

As for AGTTAACC, the binding signal worked out at 0.0821 E-score.

On to AAGGCGAG, for which the binding signal was -0.161 E-score. Then GATAAAGA, with 0.0419 E-score; and ATCTAGTC, with -0.107 E-score.

On to ACGAGGCA, for which the binding signal is -0.165 E-score. Then AATCGCTC, with -0.15 E-score; and CGGTCCAA, with -0.114 E-score; and AATGCCGT, with -0.149 E-score.

For AAAAATAT, the binding signal was -0.0209 E-score.

As for ATGTCCGA, the binding signal is -0.115 E-score. Then CATGCCAC, with 0.0723 E-score; and AATCGCAG, with -0.0167 E-score. As to AATCGGAT, the binding signal is -0.0445 E-score. Then GTCATCAC, with -0.0533 E-score. Then CCCCCCGG, with 0.254 E-score; and AGGACCTA, with -0.15 E-score; and CGAGATAG, with -0.177 E-score. With CACCGCTC, the binding signal is 0.27 E-score.

Consider CGTCTTTA, for which the binding signal was -0.0503 E-score. Then CCCTAAGG, with 0.0943 E-score; and AAACGGAA, with -0.261 E-score. For the sequence CTCAGCAA, the binding signal was -0.256 E-score. Then CATTTGTC, with -0.231 E-score. In the case of AGTACACG, the binding signal came to 0.426 E-score. In the case of CATATTAA, the binding signal was 0.012 E-score. CTTAGGCA: the binding signal was -0.162 E-score. Take GGACCCCC: the binding signal is 0.26 E-score. Then AGTATGCG, with 0.0688 E-score; and CACAGATC, with -0.0297 E-score. Then GAGCCCGA, with -0.0374 E-score; and GCATAGGA, with 0.00271 E-score; and ACGGGGAG, with 0.0346 E-score.

The record behind these values is article PMC10668032.
